The antibiotic and cytotoxicity screens of Wong et al. (2023)
The list shows a part of the results.

Tests used:
[1] = test system: HSkMC (human skeletal muscle cells); test: cytotoxicity call (relative viability < 0.9); conditions: 10 µM
[2] = test system: HepG2; test: cytotoxicity call (relative viability < 0.9); conditions: 10 µM
[3] = test system: S. aureus RN4220; test: growth inhibition call (relative growth <= 0.2); conditions: 50 µM

Row | Compound | cytotoxicity call [1] | cytotoxicity call [2] | growth inhibition call [3]
1 | C[C@H](CO)N1C[C@H](C)[C@@H](CN(C)C(=O)Nc2ccc(F)cc2)Oc2c(NC(=O)c3ccc(-c4nccs4)cc3)cccc2C1=O | inactive | inactive | inactive
2 | C[C@H]1CCCCO[C@@H](CN(C)Cc2ccccc2)[C@@H](C)CN([C@@H](C)CO)C(=O)c2cc(NS(=O)(=O)c3cccs3)ccc2O1 | inactive | active | inactive
3 | CC(C)NC(=O)N(C)C[C@H]1Oc2c(NS(=O)(=O)c3cccs3)cccc2C(=O)N([C@H](C)CO)C[C@H]1C | inactive | inactive | inactive
4 | C[C@H](CO)N1C[C@H](C)[C@H](CN(C)Cc2ccc(Oc3ccccc3)cc2)Oc2ccc(NC(=O)Nc3ccccc3)cc2CC1=O | inactive | inactive | inactive
5 | C[C@H]1CCCCO[C@@H](CN(C)C(=O)Cc2ccccc2)[C@@H](C)CN([C@@H](C)CO)C(=O)c2cc(NC(=O)Cc3ccccc3)ccc2O1 | inactive | inactive | inactive
6 | COC(=O)CCCCCCC(=O)Nc1ccc([C@H]2O[C@@H](CN(C)Cc3ccccc3)C[C@H](c3ccccc3)O2)cc1 | inactive | inactive | inactive
7 | C[C@@H]1CN([C@@H](C)CO)C(=O)Cc2cc(NC(=O)Nc3cccc4ccccc34)ccc2O[C@@H]1CN(C)Cc1ccc2c(c1)OCO2 | inactive | active | inactive
8 | c1ccc(-c2n[nH]c3c2CCC3)cc1 | inactive | inactive | inactive
9 | O=C(C[C@H]1CC[C@H]2NC[C@H](O)COC[C@@H]2O1)NCCN1CCCC1 | inactive | inactive | inactive
10 | COc1ccc(S(=O)(=O)Nc2ccc3c(c2)C(=O)N([C@H](C)CO)C[C@H](C)[C@@H](CN(C)Cc2ccc4c(c2)OCO4)OCCCC[C@H](C)O3)cc1 | inactive | inactive | inactive
11 | CC1(C)[C@H]2C[C@@H](O[C@H]3O[C@@H](CO)[C@@H](O)[C@@H](O)[C@@H]3O)[C@@]1(C)C[C@@H]2O | inactive | inactive | inactive
12 | CC(C)NC(=O)Nc1ccc2c(c1)C(=O)N([C@@H](C)CO)C[C@@H](C)[C@@H](CN(C)CC1CCCCC1)OCCCC[C@@H](C)O2 | inactive | inactive | inactive
13 | Cc1cc(C)n(-c2n[nH]c(=S)n2N)n1 | inactive | inactive | inactive
14 | Cc1noc(C)c1NC(=O)Nc1cccc2c1O[C@@H](CN(C)C(=O)Nc1ccc(C(F)(F)F)cc1)[C@@H](C)CN([C@@H](C)CO)C2=O | inactive | inactive | inactive
15 | C[C@H](CO)N1C[C@H](C)[C@H](CN(C)Cc2ccc(C(F)(F)F)cc2)Oc2ccc(NC(=O)Nc3ccc(C(F)(F)F)cc3)cc2CC1=O | active | active | inactive
16 | C[C@@H]1CCCCO[C@H](CN(C)C(=O)NC2CCCCC2)[C@@H](C)CN([C@@H](C)CO)C(=O)c2cc(NC(=O)c3ccccc3)ccc2O1 | inactive | inactive | inactive
17 | COc1ccc(NC(=O)Nc2cccc3c2O[C@H](CN(C)S(=O)(=O)c2cn(C)cn2)[C@@H](C)CN([C@@H](C)CO)C3=O)cc1 | inactive | inactive | inactive
18 | C[C@H](CO)N1C[C@H](C)[C@@H](CN(C)S(=O)(=O)c2ccccc2)Oc2ccc(NC(=O)CCCN(C)C)cc2C1=O | inactive | inactive | inactive

Row | Compound | cytotoxicity call [1] | cytotoxicity call [2] | growth inhibition call [3]
19 | C[C@@H]1CCCCO[C@H](CN(C)Cc2ccccc2)[C@H](C)CN([C@H](C)CO)C(=O)c2cc(NC(=O)Nc3cccc4ccccc34)ccc2O1 | active | active | inactive
20 | COc1ccc(CN(C)C[C@H]2OCCCC[C@@H](C)Oc3ccc(NS(=O)(=O)c4ccccc4)cc3C(=O)N([C@@H](C)CO)C[C@@H]2C)cc1 | inactive | inactive | inactive
21 | C[C@H]1CN([C@@H](C)CO)C(=O)c2cc(/C=C/c3ccccc3)cnc2O[C@@H]1CN(C)C(=O)CN1CCOCC1 | inactive | inactive | inactive
22 | COc1cc(OC)c2c(OC)c(-c3ccc4c(c3)OCO4)c(=O)oc2c1 | inactive | inactive | inactive
23 | Cc1cc(N)no1 | inactive | inactive | inactive
24 | C[C@@H]1CN([C@@H](C)CO)C(=O)c2cc(NC(=O)CCC(F)(F)F)ccc2O[C@@H](C)CCCCO[C@H]1CN(C)S(=O)(=O)c1ccccc1 | inactive | inactive | inactive
25 | C[C@H]1CN([C@@H](C)CO)C(=O)c2cc(NS(C)(=O)=O)ccc2O[C@@H]1CN(C)S(=O)(=O)c1ccccc1 | inactive | inactive | inactive
26 | Cc1nn(C)cc1NC(=O)C[C@@H]1CC[C@H]2[C@@H](COc3ccc(NC(=O)C4CCOCC4)cc3C(=O)N2C)O1 | inactive | inactive | inactive
27 | Cc1noc(C)c1NC(=O)Nc1ccc2c(c1)C(=O)N([C@@H](C)CO)C[C@@H](C)[C@H](CN(C)C(=O)Nc1c(C)noc1C)OCCCC[C@@H](C)O2 | inactive | inactive | inactive
28 | N[C@@H]1CC(=O)N(c2ccc(F)cc2)C1 | inactive | inactive | inactive
29 | CC(C)NC(=O)Nc1ccc2c(c1)C(=O)N([C@H](C)CO)C[C@H](C)[C@@H](CN(C)Cc1ccc(Cl)c(Cl)c1)OCCCC[C@@H](C)O2 | inactive | inactive | inactive
30 | COc1ccc(NC(=O)N(C)C[C@@H]2OCCCC[C@@H](C)Oc3ccc(NC(=O)Nc4cccc5ccccc45)cc3C(=O)N([C@H](C)CO)C[C@@H]2C)cc1 | inactive | inactive | inactive
31 | COc1ccc(CN(C)C[C@@H]2OCCCC[C@H](C)Oc3ccc(NS(=O)(=O)c4cccs4)cc3C(=O)N([C@@H](C)CO)C[C@H]2C)cc1 | inactive | inactive | inactive
32 | NC(=O)NCC#Cc1ccc2c(c1)[C@]1(C(=O)N2)[C@H](c2ccc(O)cc2)N2[C@H](c3ccccc3)[C@H](c3ccccc3)OC(=O)[C@H]2[C@@H]1C(N)=O | inactive | inactive | inactive
33 | CO[C@H]1CN(C)C(=O)c2ccc(NC(=O)NC(C)C)cc2OC[C@H](C)N(Cc2ccc(-c3ccccn3)cc2)C[C@H]1C | inactive | inactive | inactive
34 | CC(C)NC(=O)N(C)C[C@@H]1Oc2c(NS(=O)(=O)c3ccc(Cl)cc3)cccc2C(=O)N([C@@H](C)CO)C[C@@H]1C | inactive | inactive | inactive
35 | C[C@H]1CN([C@@H](C)CO)C(=O)c2cc(NS(=O)(=O)c3ccc(F)cc3)ccc2O[C@@H]1CN(C)S(=O)(=O)c1cn(C)cn1 | inactive | inactive | inactive
